Measured values: the supplement of paper PMC3334620
Whole data set: some 33,000 sequences, median “E-score (-0.5 to 0.5)” near -0.035, cut for the highest 2% near 0.35. This is one part of the list.

target: T1, Pdr3 (UniProt P33200); assay: PBM E-score (8-mer binding enrichment) (E-score (-0.5 to 0.5)); higher = stronger / more preferred TF binding; most listed sequences are background and not binding sites; conditions: protein concentration: 200 nM; construct: GST-full length
T1 sequence: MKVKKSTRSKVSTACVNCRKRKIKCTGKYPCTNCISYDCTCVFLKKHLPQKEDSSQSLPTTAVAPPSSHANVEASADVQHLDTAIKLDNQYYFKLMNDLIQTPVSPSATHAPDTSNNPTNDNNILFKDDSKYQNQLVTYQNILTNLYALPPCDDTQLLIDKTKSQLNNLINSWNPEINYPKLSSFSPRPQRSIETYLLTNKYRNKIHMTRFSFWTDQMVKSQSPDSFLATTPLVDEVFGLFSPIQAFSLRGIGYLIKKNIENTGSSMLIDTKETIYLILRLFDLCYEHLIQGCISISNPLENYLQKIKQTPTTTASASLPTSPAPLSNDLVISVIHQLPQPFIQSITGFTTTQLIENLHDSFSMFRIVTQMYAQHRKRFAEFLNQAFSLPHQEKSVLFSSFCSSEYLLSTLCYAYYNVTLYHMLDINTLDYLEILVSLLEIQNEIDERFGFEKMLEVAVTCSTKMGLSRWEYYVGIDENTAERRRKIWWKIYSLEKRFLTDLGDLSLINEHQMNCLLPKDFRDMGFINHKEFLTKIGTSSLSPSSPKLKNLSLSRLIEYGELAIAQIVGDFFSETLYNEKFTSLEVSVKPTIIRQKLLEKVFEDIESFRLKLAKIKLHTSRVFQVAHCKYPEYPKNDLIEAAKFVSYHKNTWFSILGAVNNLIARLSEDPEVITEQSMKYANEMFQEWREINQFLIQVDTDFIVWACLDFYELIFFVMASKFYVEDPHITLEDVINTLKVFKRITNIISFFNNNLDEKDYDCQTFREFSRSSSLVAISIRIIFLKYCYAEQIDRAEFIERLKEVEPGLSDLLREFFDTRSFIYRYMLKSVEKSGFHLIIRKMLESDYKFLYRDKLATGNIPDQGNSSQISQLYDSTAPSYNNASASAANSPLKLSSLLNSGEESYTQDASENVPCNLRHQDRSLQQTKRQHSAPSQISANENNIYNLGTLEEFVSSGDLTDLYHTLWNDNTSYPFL
Method in brief: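 For each ungapped eight-base word taken together with its reverse complement, the Universal PBM Analysis Suite assigned an E-score. Binding data came from GST-tagged yeast transcription factors, applied at about 100-200 nM, on universal all-10-mer Agilent arrays made double-stranded by primer extension. Fluorescent anti-GST marked bound protein, and scans were normalised with masliner.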

Sequence	PBM E-score
ATACCACC	0.162
CATGCTAG	-0.223
CATATGTC	-0.0367
CTCCCGTA	-0.0071
AGCCGAAA	0.14
CGCTGACA	0.0155
GGCTTGCA	-0.167
GTGCTAAC	0.0801
AATTTACC	0.00226
TGGATTAA	-0.102
ACATAGAG	-0.203
CAGGAAGA	0.0315
ACGTCTGA	-0.0905
ACAATGCT	-0.171
CTGACACC	-0.0269
ACGGACCA	0.359
ATCATATA	-0.0266
CCACAATC	-0.149
CTCCTATA	-0.357
CGTGCCTC	-0.0179
GCACTTAC	-0.155
TAAGGACA	-0.149

Sequence	PBM E-score
GAACTGAA	0.108
AGTCCGGC	0.216
CCTCGCTC	0.102
TGGTTCAA	-0.00904
ACGTGACT	-0.294
CCTAGCAA	-0.294
GACACGAC	0.0509
CAAAGAGG	-0.176
GATTCATA	-0.0226
AATCGACT	-0.208
CTAGGAGC	-0.12
CAATAGCC	-0.221
GCCCCCAA	-0.272
ACATTGGT	-0.14
GGTAGAAC	-0.0218
ACTATAAG	-0.165
GAGGTGGC	-0.208
CGACCGCA	0.158
AATGACTA	-0.208
AAGATGAT	-0.298
ATGTGGGG	-0.241
AGCTGTAG	-0.0614

Sequence	PBM E-score
AAGGTAGA	-0.136
AGATTTAA	0.0063
CACAGGTG	-0.194
CTGCCCAA	0.0511
GTTGACAA	0.0346
AACTACCC	-0.129
ATACGTGC	0.0169
GAGTTGCA	-0.047
CTCGAATA	-0.107
CCGCACAA	0.108
ATGCACCG	0.122
AAAGAATT	0.0723
ACACGCGC	0.0939
CTAAGGCA	-0.135
AATCGTAG	-0.135
CGTCCCAC	0.0401
AGCTATCA	-0.0259
GTCCAGAC	-0.291
CAGGGTAG	-0.198
AGTCTACG	-0.175
AGCAACAC	-0.0384
GGTCCACC	-0.036

Sequence	PBM E-score
GTAAGCAC	-0.245
TACAAGAA	-0.0181
CCGGGCTA	0.25
CTAGTCAC	-0.159
GAAAGAAA	0.0628
GCTACTGA	0.00622
CAGTGACC	0.00313
CCTGCAAA	-0.173
AACGGTAA	0.0993
ACTCCCGA	0.0347
GTAGGGTA	-0.00998
CGGATTGA	0.315
AACGTGAC	-0.0631
CGGTAGAA	-0.215
ATTGACGG	0.16
CCGTTAAG	0.121
GATCAGCC	-0.0112
TGCAATAA	-0.00943
AATCAGTG	-0.104
AATGATGC	0.177
AGCAAAAC	-0.0852
AGTTTGGG	0.0572

Sequence	PBM E-score
AGCGGATC	0.374
AAGTGGTC	0.00637
CTGCCATC	-0.0435
GAGGTACC	0.00932
CGCATCTA	0.225
CATGTCCC	0.0958
AAATTATG	-0.0382
ACCCGCTA	0.0768
AGAAGTAA	-0.134
ATTCTGTA	-0.103
CGACACCC	-0.0348
CTTTTGGC	-0.0694
AATGCAAC	-0.217
ATACTTAA	-0.0649
TAATTCGA	-0.234
CTGACATC	0.0447
ATTTCAGC	-0.05
CCGCAGTA	0.0477
ACATTAGT	-0.0557
GTAAGCAA	-0.0781
TACGAGGA	0.00203
